The whole screen tested about 310,000 compounds, of which about 14,000 (4.5%) showed an effect of 50% or more. Effects have a minus sign here. The list shows a part of the results.
The compounds below were run against human ether-à-go-go-related gene (hERG) potassium channel (human, UniProt Q12809) (assay: primary screen, population patch clamp on CHO cells stably expressing hERG).
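Note: peak tail current of the secondary pulse compared with the same well before compound.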

human ether-à-go-go-related gene (hERG) potassium channel, sequence (Q12809 whole entry, looked up): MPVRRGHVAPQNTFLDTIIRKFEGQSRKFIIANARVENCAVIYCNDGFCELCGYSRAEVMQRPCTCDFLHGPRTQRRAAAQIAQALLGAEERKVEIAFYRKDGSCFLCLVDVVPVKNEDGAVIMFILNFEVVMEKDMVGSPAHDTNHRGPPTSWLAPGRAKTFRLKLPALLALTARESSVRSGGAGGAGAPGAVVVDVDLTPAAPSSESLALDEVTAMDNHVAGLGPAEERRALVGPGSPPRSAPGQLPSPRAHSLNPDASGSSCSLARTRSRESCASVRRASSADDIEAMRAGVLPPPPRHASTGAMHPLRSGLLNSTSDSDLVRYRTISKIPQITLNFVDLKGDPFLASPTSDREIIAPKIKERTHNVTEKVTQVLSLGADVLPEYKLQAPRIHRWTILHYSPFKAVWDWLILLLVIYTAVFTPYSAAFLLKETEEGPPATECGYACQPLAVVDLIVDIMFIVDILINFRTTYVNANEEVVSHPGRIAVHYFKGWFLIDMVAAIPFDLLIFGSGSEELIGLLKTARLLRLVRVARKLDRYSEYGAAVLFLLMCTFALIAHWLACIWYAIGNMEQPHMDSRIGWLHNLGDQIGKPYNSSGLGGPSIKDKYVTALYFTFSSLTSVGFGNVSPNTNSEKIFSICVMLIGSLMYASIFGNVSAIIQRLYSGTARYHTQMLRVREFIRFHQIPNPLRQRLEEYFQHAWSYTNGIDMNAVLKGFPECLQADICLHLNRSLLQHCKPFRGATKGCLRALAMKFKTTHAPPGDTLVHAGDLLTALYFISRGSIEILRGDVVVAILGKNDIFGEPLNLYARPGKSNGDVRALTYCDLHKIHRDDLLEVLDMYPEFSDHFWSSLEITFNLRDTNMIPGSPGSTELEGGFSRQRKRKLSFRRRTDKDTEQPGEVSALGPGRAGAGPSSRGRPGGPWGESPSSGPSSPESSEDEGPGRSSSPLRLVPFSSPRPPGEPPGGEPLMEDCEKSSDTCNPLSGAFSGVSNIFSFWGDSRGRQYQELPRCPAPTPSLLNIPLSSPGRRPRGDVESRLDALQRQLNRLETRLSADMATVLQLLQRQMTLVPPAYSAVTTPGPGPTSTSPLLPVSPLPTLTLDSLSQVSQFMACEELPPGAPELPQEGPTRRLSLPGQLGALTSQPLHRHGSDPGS

SMILES	hERG current change (%, negative = inhibition) at 10uM
Cc1ccnc(SCC(=O)c2cc3ccccc3o2)n1	19.9%
COc1cc2c(c(OC)c1OC)-c1ccc(N(C)CC(OC)OC)c(=O)cc1[C@@H](NC(C)=O)CC2	9%
Cn1c(=O)c2c(ncn2CC(=O)N2CCN(c3cccc(Cl)c3)CC2)n(C)c1=O	-64.2%
Cl.c1ccc2c(CN3CCCCCC3)c[nH]c2c1	-18.1%
O=C(c1ccc2c(c1)OCO2)C1CCCN(Cc2cccn2-c2cccnc2)C1 (stereo not drawn)	-58.3%
CCCOc1ccc(C2NC(=S)NC(c3ccccc3)=C2C(=O)Nc2ccc(C)cc2)cc1OC (stereo not drawn)	0.514%
COC(=O)C1=C(c2ccc(F)cc2OCc2ccccc2)C[C@@H]2CC[C@H]1N2C(=O)NCc1ccccc1OC	7.42%
Cc1cc2cc(CCNC(=O)c3ccc(S(=O)(=O)N4CCCC4)cc3)c(=O)[nH]c2cc1C	-3.92%
NS(=O)(=O)c1cccc(NC(=O)c2cccc3c(Br)cccc23)c1	29.7%
Cc1ccc(OCC(=O)NNC(=O)c2cc(C)[nH]n2)cc1	24.6%
O=S(=O)(c1ccc(F)cc1)N1CCN(Cc2nnc(-c3ccccc3)o2)CC1	-33.4%
O=C(Nc1ccc(N2CCN(C(=O)c3ccccc3)CC2)c(Cl)c1)c1ncn[nH]1	-5.79%
CCOc1ccc(-n2c(C)nnc2SCC(=O)N(CC)CC)cc1	2.63%
COCCNC(=O)c1cc2c3ccccc3n(C)c2s1	1.16%
O=C(CCCc1ccccc1)NCc1ccc(F)cc1	-22.8%
Cc1ccc2nc(C)c(Cl)c(=O)n2c1	-3.16%
CCOc1ccc(-c2csc(N)c2C(=O)OC)cc1	-0.294%
O=C(O)CSc1ncnc2sc(-c3ccccc3)cc12	23.6%
CCC(=O)N1CCN(c2ccc(NC(=O)c3c(F)c(F)c(OC)c(F)c3F)cc2)CC1	-2.56%
CC(C)CCN1CCN(Cc2nc3ccccc3s2)CC1CCO (stereo not drawn)	-41.4%
O=C(c1ccc2c(c1)OCO2)C1CCCN(Cc2cccc(C(F)(F)F)c2)C1 (stereo not drawn)	-20.5%
CCC(C)(C)NC(=O)C(c1ccncc1)N(C(=O)Cn1nnc2ccccc21)c1cc2c(cc1C(C)=O)OCO2 (stereo not drawn)	-3.25%
COc1ccc(C2C3=C(CC(C)(C)CC3=O)N(CCN3CCOCC3)C3=C2C(=O)CC(C)(C)C3)cc1	-20.8%
CN(C(=O)C1CCCN(S(=O)(=O)c2cccc([N+](=O)[O-])c2)C1)C1CCS(=O)(=O)C1 (stereo not drawn)	5.85%
O=C(CSc1nnc(CNC(=O)c2ccc(F)cc2)o1)Nc1nccs1	-4.96%
COc1ccccc1CN1CCCCC1c1cccnc1 (stereo not drawn)	-1.23%
O=C(Cc1ccc(-c2ccccc2)cc1)N1CCOCC1	-3.74%

SMILES	hERG current change (%, negative = inhibition) at 10uM
C=CCN1C(=O)c2ccc(C(=O)N3CCN(S(=O)(=O)c4cccc(F)c4)CC3)cc2C1=O	-62.7%
CCOCCCn1c(SCC(=O)Nc2cc(OC)ccc2OC)nc2ccccc2c1=O	-55.7%
CC(NC(=O)Cc1ccccc1)c1ccc(F)cc1 (stereo not drawn)	27.3%
COc1ccc(C(=O)NNC(=O)CSc2ccccc2)cc1	5.71%
Cc1cc(=O)n2[nH]c(Nc3cccc(Cl)c3)nc2n1	21.2%
CCCc1cc(=O)oc2c(CN3CCN(C)CC3)c(O)c(Cl)cc12	-10.3%
CC(C)[C@H](NC(=O)c1ccc(Br)cc1)C(=O)NC1CCCCC1	1.97%
COc1cccc(N2CCN(C(=O)c3cccnc3)CC2)c1	11.2%
COC(=O)C1=C(C)NC2=C(C(=O)CCC2)C1c1ccc(-c2ccsc2C(=O)OC)o1 (stereo not drawn)	1.84%
CC(C(=O)Nc1ccc(F)cc1Cl)N1CCN(S(=O)(=O)c2cccs2)CC1 (stereo not drawn)	-10.7%
Cc1ccccc1C(=O)N1CCC(C(=O)N(CC(C)C)c2c(N)n(CC(C)C)c(=O)[nH]c2=O)CC1	5.62%
O=C(Nc1ccc(Cc2ccncc2)cc1)c1ccc([N+](=O)[O-])o1	-24.4%
Cc1ccc(S(=O)(=O)CC2CSc3nc(N)cc(=O)n32)cc1 (stereo not drawn)	2.97%
COc1cc2c(cc1OC)CN(C(=O)c1ccc(OC)c(S(=O)(=O)N3CCOCC3)c1)CC2	3.03%
COC(=O)c1nnn(-c2nonc2N)c1CSc1nnc(C)s1	-1.84%
CC(C)Cc1nc(SCC(=O)N2CCCC2)c2c(=O)n(C)c(=O)n(C)c2n1	-31.3%
O=C(NCc1cccnc1)/C(=C/c1ccccc1)NC(=O)c1ccccc1	-34.5%
CSc1ncccc1C(=O)OCC(=O)c1cc2ccccc2o1	5.26%
O=C(Cn1ccc(NC(=O)OCc2ccccc2)nc1=O)NCCc1ccccn1	5.97%
Cc1nn(CC(=O)NCCN2CCOCC2)c(=O)c2ccccc12	22.9%
CC(C)Cn1c(-c2csc3c2CCCC3)n[nH]c1=S	8.85%
COC(=O)[C@@]1(Cc2ccc(F)cc2)[C@H]2c3cc(C(=O)N4CCCC4)n(CCc4ccc(O)c(O)c4)c3C[C@H]2CN1C(=O)c1ccccc1	-15.5%
CN(C)S(=O)(=O)c1cccc(NC(=O)c2ccc(OC(F)(F)F)cc2)c1	-27.8%
O=C(Nn1cc(C(=O)N2CCN(c3ccccc3F)CC2)c2ccccc2c1=O)c1cnccn1	2.84%
Cc1c(-c2ccnc3cc(C(=O)O)nn23)cnn1C	9.17%
Cc1noc(NC(=O)c2ccccc2C(F)(F)F)c1C#N	-46%
O=C(C1CCN(S(=O)(=O)Cc2ccccc2)CC1)N1CCN(c2ncccn2)CC1	-2.53%

From paper PMC4336329 (PLoS ONE, 2015)
